Laboratory results: article PMC12136788
The list shows a part of the results.

T1: UNK ZnF1-3 (human, UniProt Q9C0B0 31-174)
T1 sequence: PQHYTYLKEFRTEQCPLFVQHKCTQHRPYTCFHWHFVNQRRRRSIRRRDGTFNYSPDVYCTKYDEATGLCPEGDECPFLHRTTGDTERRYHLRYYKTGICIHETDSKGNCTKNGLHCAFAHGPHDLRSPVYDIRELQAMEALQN

B1: chr7:102952668:102952669:+_ENSG00000105819_ENST00000453466|hu_hu|FALSE|FALSE (ssRNA)
RNA: GGGAGUUCUACAGUCCGACGAUCCUGUUUAAAAUCUGGUAGUUGCUUAAUGGGACCAACAGCAGCAAUAGCUGGACUCCUAUUAUAAAUGUAUUUGGUACAUACUUCUCGAAUUGUCUCAGCAUUCACAGCAUCAAUUCUUGCCAACAGAGGAUUGAGCAUCA
B2: chr3:150289932:150289933:+_ENSG00000144895_ENST00000460851|hu_hu|hu_hu_hu_mus_False|8_98 (ssRNA)
RNA: GGGAGUUCUACAGUCCGACGAUCCUUGUAGUUUUUAACAUCCCACACUUCCAUUUGUCCUCGAAGAUUUCCAAAUCCAGCCAGCACUAAUAUAUGUCCAUGAGGGCUAUAGAAGGCUGCGUUGCGAGGACCAGUUCCAAAGUCCAACAGAGGAUUGAGCAUCA
B3: chr7:102944291:102944292:+_ENSG00000105819_ENST00000453466|hu_mus|FALSE|FALSE (ssRNA)
RNA: GGGAGUUCUACAGUCCGACGAUCCUCAAUCUCUGCUUCUCCCAGUGUGCUGUUCUGAAUUAUGUCAGCAAGAAUUUCUACAGCUCUGGGCAAAUCUCUCGAGAAUGCUUUGGCGUAGUAGACAGUCUGCUCUCUGGAGGUAUACAACAGAGGAUUGAGCAUCA
B4: chr1:52991732:52991733:-_ENSG00000134744_ENST00000257177|hu_mus|motif|central (ssRNA)
RNA: GGGAGUUCUACAGUCCGACGAUCUUUAGGGCCUGGAACACUGGCAGCGUUUACUUUACAUGAUUUAGCUUCUGUUUUUUCGGUACAAAUAUCAUUUUGCUUGGUUUUUUUACUACUAUUUCUAUUCAGAGAGCUGGUCCCAAUCAACAGAGGAUUGAGCAUCA
B5: chr11:61557309:61557310:-_ENSG00000134825_ENST00000537328|hu_hu|motif|central (ssRNA)
RNA: GGGAGUUCUACAGUCCGACGAUCGAUGCCAACCCAGAGCAGCAGGAAGAGGACUCCAAAGCCCAUGAAGAGUGAGGCCACGGAGGAGAUGAGGAGCUCUUUAUAGAUAUCACGAGUGUACUUGGUAGAGGUGACCUCGUAAACCAACAGAGGAUUGAGCAUCA
B6: chr2:48026839:48026840:+_ENSG00000116062_ENST00000540021|hu_hu|hu_hu_hu_mus_False|18_28 (ssRNA)
RNA: GGGAGUUCUACAGUCCGACGAUCAUAGUGAGCCACUAGCGUCCUAAAUCUGGAACAGUGGCGGUCAUCCGAAAACUGGCCGAUGAAAAACUUGCCCAGUGAAGUGUCAACAAAGCACACACCAUAUACACGAGUGUGACCAGACAACAGAGGAUUGAGCAUCA
B7: chr2:26350769:26350770:+_ENSG00000084733_ENST00000264710|hu_hu|FALSE|FALSE (ssRNA)
RNA: GGGAGUUCUACAGUCCGACGAUCGAUAUCUUCAGCUAACGUGAGGAACGCCUUUUCGAUGUUUAUAUUUGCUUUUGCACUAGUCUCAAAAAACCUAAUACCAUGCUCCCUUGCAAUCUGUUCUCCUUUUCCUUUAGGUACAACCAACAGAGGAUUGAGCAUCA
B8: chr1:21106938:21106939:-_ENSG00000127483_ENST00000312239|hu_hu|FALSE|FALSE (ssRNA)
RNA: GGGAGUUCUACAGUCCGACGAUCUGGGAGUGCCUUAGGAUGGACGAGUUCACCUUGAGACGUAUCAGUCGCCAUUUUAAAUAAUUUCUAGGCCCGAGUACAGGUUACACUCUGAAGCCUCUGCUGUUAACCACAAGGAUUUUUCAACAGAGGAUUGAGCAUCA
B9: 65298466_65308830_830_CDS_ENSG00000103707_ENST00000220058|human|control|control (ssRNA)
RNA: GGGAGUUCUACAGUCCGACGAUCGUUAACUUCUACCAAAUCCAGAAGUUUAAUGGUAUUCGCCAUCCAGAGCGUCUGCAACGGAAUUAUAUUUCCAAUGGCACGGUAAAGUCUGAAUAUUUGUUCUGAAGUUUGUUCCUCCCACAACAGAGGAUUGAGCAUCA
B10: chr3:115528449:115528450:-_ENSG00000185565_ENST00000490035|hu_mus|FALSE|FALSE (ssRNA)
RNA: GGGAGUUCUACAGUCCGACGAUCCGCACGCGCACAGUGGAGAAGAUGAAAAUGGUACUUCCUAAAGUUUGCGGCGUGACUCGUGUUCUGGGUUGCUGGGGCAAAAGGGAGGUGGGGGUAGAGAAAAGGGGAAUAUUUGGAAUGCAACAGAGGAUUGAGCAUCA
B11: chr21:30434530:30434531:-_ENSG00000156261_ENST00000286788|hu_hu|motif|central (ssRNA)
RNA: GGGAGUUCUACAGUCCGACGAUCAUCGUCUACUGCCCUUUCUAUGUCAUCCAUCAGAUUGUCUGUAGAGCCUCGAAGUACGGUGGUAGAAAUGGCGCCAUCUUCCUUUUCAUGCUUAAAAACCACCACCUGAGUAUCUCCAACCAACAGAGGAUUGAGCAUCA
B12: chr4:88379012:88379013:+_ENSG00000170502_ENST00000302174|hu_mus|FALSE|FALSE (ssRNA)
RNA: GGGAGUUCUACAGUCCGACGAUCGUCGCUGAUGUCCACCCACUUCACCUUCCCUGCGUCAUCUCCGGCCUCCAGGGUGAGGUUGUCCAUGGUCUCCCCUGUUUCAUCAUGGUAGUUCACGGCUUCCGUCUCCAUCCACGCAUUCAACAGAGGAUUGAGCAUCA
B13: 130911969_130912702_1509_CDS_ENSG00000136699_ENST00000351288|human|control|control (ssRNA)
RNA: GGGAGUUCUACAGUCCGACGAUCGAAGCUCCCAGUGAAUGUGGGGGCCGUGAAGAGUCGGUGCUGGCGGUGGGGGAUGACCAGCUCUGGCUCCAGGAAUAGCUGCUCACCUUUCUGAAUCAUCUCAGCCAGGUUGGGCUGGGCCAACAGAGGAUUGAGCAUCA
B14: chr5:69964302:69964303:+_ENSMUSG00000029208_ENSMUST00000154728|mus_mus|FALSE|FALSE (ssRNA)
RNA: GGGAGUUCUACAGUCCGACGAUCCAGUAUCAAGACUUUUUCUUGGAGUAAUGUAUUUUUCAGUUUGUUAUGAACAUGAAACUAAUCCAUUUAUUAGCUGUGUCAUUUAGGUAUGUUUAGUUAAUAGCUUCUAAUUUAUUAACACAACAGAGGAUUGAGCAUCA
B15: chr1:39494564:39494565:+_ENSG00000168653_ENST00000372967|hu_hu|hu_hu_hu_mus_True|38_88 (ssRNA)
RNA: GGGAGUUCUACAGUCCGACGAUCAUGCAUUCGCCUCAUCGUUUUGUGCCGAAGCAAGCACUCUUCGAAGUCAUCGAACUCUAUCUUGCACUCCUUUUCUGCCCGAGUCCCACCGAUCCCGUGUGCACACUCUAUCCACUCUUUCAACAGAGGAUUGAGCAUCA
B16: chr16:57153313:57153314:+_ENSMUSG00000022752_ENSMUST00000166897|mus_hu|motif|central (ssRNA)
RNA: GGGAGUUCUACAGUCCGACGAUCUUUCAAAAAAUCAACUGAAAGCGGUUAACUGAAUAUAAAUCUAUUUUACAGCAUUUACGGCGUUAAUUUAAAAAUCAACAUGCUGUAAAAUACUUACAUUAUUCACACAUAUAUAGACGGCAACAGAGGAUUGAGCAUCA
B17: 113181949_113184194_628_3pUTR_ENSG00000138660_ENST00000274000|human|control|control (ssRNA)
RNA: GGGAGUUCUACAGUCCGACGAUCAGCGUAUAAAGCUUCUUCUUCUAGUCUUAACUUCUCUUCUUGUAAGGCUAACUCUUUUUGAAUUUUCUUAUCAAGAUCUUUUUGUUUUUCGGCAAUGGAAUCAUAAUGCCUUUCUCUUAGCAACAGAGGAUUGAGCAUCA
B18: 17260850_17260970_3741_3pUTR_ENSMUSG00000050240_ENSMUST00000090190|mouse|control|control (ssRNA)
RNA: GGGAGUUCUACAGUCCGACGAUCUUGGUCUGAAGUAAAAAUCAAAAGGAAAAUGAAAAGCCAUGAAGCAACAUGAUAAGGUCUAUAGGCCCAUCUGGGACAGAACACAGACACUCUUGGUCUUGCCUUGCCCCUUGCAGAAGCCAACAGAGGAUUGAGCAUCA
B19: chr9:79618081:79618082:-_ENSMUSG00000032328_ENSMUST00000034878|mus_mus|FALSE|FALSE (ssRNA)
RNA: GGGAGUUCUACAGUCCGACGAUCCUUCAUUAAAGAGGAUGUGUAUACAUAUCCAUAUUUGUUAGACCUGUAUGCAAAAAAUUUAAUGAAAUAUGGAAGAAAUUAGGAUUUCAAAUUUUUCUGGAAUAUUAUACUCAGUCACUUCAACAGAGGAUUGAGCAUCA
B20: chr1:89688648:89688649:+_ENSMUSG00000026289_ENSMUST00000027512|mus_hu|motif|central (ssRNA)
RNA: GGGAGUUCUACAGUCCGACGAUCUGGCCUUCAUCACAACCCCUGAAACGGAAAGAUGGCGCUGCUGUGCUUCUGAGCCGGGGCUUCUUGCACUAAAGCACCAAGGGCAUCGCACACAGGCUUGGCAGAGGGGCCAUGGCCAGACAACAGAGGAUUGAGCAUCA
B21: 48270083_48270203_4574_3pUTR_ENSMUSG00000038143_ENSMUST00000110367|mouse|control|control (ssRNA)
RNA: GGGAGUUCUACAGUCCGACGAUCAGUGAAAAUAUUUUAUAUUGAUUUUUAUGAAUUCAUUAUGGUAUAUGGCUCCAAAACUCAUCUGACACUAAACUGAAUAUAACUUUAUCUCUGGUCAUUUUCCUGGGAUUAGAUCUAACCCAACAGAGGAUUGAGCAUCA
B22: chr7:141450121:141450122:+_ENSG00000106028_ENST00000265304|hu_mus|hu_hu_hu_mus_True|18_28 (ssRNA)
RNA: GGGAGUUCUACAGUCCGACGAUCUCAUCCGUUCUAUGCCUUUUCUUUUGUCUGGUCACUCAGAAAUAUAAUGUUAUCAGCUAUGAUUGUUGUUGCUUGCCGCCUCACAUUAUUUUUAUCCAUGUAUUCGCCAUAGUCCACUUUCAACAGAGGAUUGAGCAUCA

Each binder was assayed against T1, UNK ZnF1-3 (assay: nsRBNS (natural sequence RNA bind-n-seq); RBNS binding buffer (assumed for nsRBNS): 25 mM Tris pH 7.5, 150 mM KCl, 3 mM MgCl2, 0.01% Triton X-100, 500 ug/ml BSA, 20 U/ml SUPERase-In, 4 C; UNK is unkempt and MSI1 is Musashi-1; names of the RNAs are library labels; protein concentration not given here; high values mean tight binding).

Binder	binding signal
B1	1.59 enrichment R
B2	0.93 enrichment R
B3	1.07 enrichment R
B4	0.721 enrichment R
B5	2.67 enrichment R
B6	1.39 enrichment R
B7	0.629 enrichment R
B8	0.962 enrichment R
B9	1.08 enrichment R
B10	1.9 enrichment R
B11	0.995 enrichment R
B12	0.539 enrichment R
B13	0.84 enrichment R
B14	0.278 enrichment R
B15	0.727 enrichment R
B16	0.457 enrichment R
B17	0.358 enrichment R
B18	1.39 enrichment R
B19	1.21 enrichment R
B20	1.16 enrichment R
B21	2.96 enrichment R
B22	0.436 enrichment R
